Test results from PubChem BioAssay AID1963875 (Molecular Pharmacology Branch, DTP, NCI, 2024).
Some entries of the source have several records that differ or are many. This is not the full list of results. The source may hold further records. The records of an entry are repeats across runs, samples, wells, individuals or studies. Brackets with × say how often a value occurs here.

Test system: KRAS-mutant PDC complex spheroid viability
Test: Anticancer human tumor 186277-243-T-J2-PDC patient-derived colon adenocarcinoma cell line growth inhibition [KRAS2]
Conditions: for viability, T/C: stronger effect = lower value; for IC50: compound alone
Description: Multicellular complex tumor spheroid response to RAS pathway inhibitors in combination with a targeted agents in patient-derived cell lines with oncogenic KRAS variants from multiple cancer types
A high-throughput screen of multi-cell type tumor spheroids was designed to identify active combinations of targeted small molecules and KRAS pathway inhibitors. Complex spheroids include a stromal component modeled by human endothelial cells (HUVEC) and fibroblasts modeled by human mesenchymal stem cells (MSCs). The concentration ranges selected for each drug and investigational agent were based upon clinically achievable concentrations if the clinical Cmax of the agent was known.
Compounds. The drugs and investigational agents: BI-3406 (NSC825286), BAY-293 (NSC824723), batoprotafib (TNO155; NSC825523), sotorasib (AMG 510; NSC818433), MRTX1257 (NSC819558), elimusertib (BAY 1895344; NSC800525), molibresib (GSK525762; NSC774829), temuterkib (LY3214996; NSC803410), venetoclax (NSC766270), alisertib (NSC759677), olaparib (NSC753686), talazoparib (NSC767125), erdafitinib (NSC781556), ipatasertib (NSC767898), cabozantinib (NSC761068), nintedanib (NSC756659), abemaciclib (NSC768073), docetaxel (NSC628503), trametinib (NSC758246), and sapanisertib (NSC764658) were obtained from the National Cancer Institute (NCI) Developmental Therapeutics Program Chemical Repository. The FDA-approved anticancer drug set is available from the Developmental Therapeutics Program. […] The stock solutions were prepared in dimethyl sulfoxide (DMSO, Sigma-Aldrich, St. Louis, MO, cat. D2650) at 800-fold the tested concentration and stored at -70 degrees C prior to their use. All drugs and investigational agents were tested over a range starting from a high concentration at or near the clinical Cmax and decreasing in half-log increments. If the clinical Cmax for an agent had not been determined, the highest concentration tested was 10 microM.
Cell Culture. All cells were maintained in an incubator at 37 degrees C and 5% CO2 with 95% humidity. The PDC lines were cultured according to standard operating procedures established by the NCI PDMR (https://pdmr.cancer.gov/sops/default.htm). Briefly, all PDCs were thawed and cultured in Matrigel-coated flasks prepared with a working solution of 1X Ham's F-12 nutrient mix, without supplementation (Invitrogen, Waltham, MA, cat. 11765054), 100 U/mL penicillin-streptomycin (Invitrogen, cat. 15140122), and 2.5% Matrigel (Corning Inc., Corning, NY, cat. 354248) for the first three passages. All PDCs were cultured in complete DMEM/F-12 media containing advanced DMEM/F-12 (Invitrogen, cat. 12634028), 4.9% defined fetal bovine serum, heat inactivated (HyClone Laboratories Inc., Logan, UT, cat. SH30070.03HI), 389 ng/mL hydrocortisone (Sigma-Aldrich, cat. H4001), 9.7 ng/mL human EGF recombinant protein (Invitrogen, cat. PHG0313), 23.4 microg/mL adenine (Sigma-Aldrich, cat. A2786), 97.3 U/mL penicillin-streptomycin (Invitrogen, cat. 15140122), 1.9 mM L-glutamine (Invitrogen, cat. 25030081), and 9.7 microM Y-27632 dihydrochloride (Tocris Bioscience, Bristol, United Kingdom, cat. 1254). The PDCs were cultured in complete DMEM/F12 media without 9.7 microM Y-27632 dihydrochloride for at least two passages prior to the screen. The established cell line HOP-62 was cultured in RPMI 1640 medium, HEPES (Invitrogen, cat. 22400105) with 10% defined fetal bovine serum (HyClone Laboratories Inc., cat. SH30070.03) and 2 mM L-glutamine (Invitrogen, cat. 25030081). The pooled donor HUVEC were cultured in endothelial cell growth medium 2 (PromoCell, Heidelberg, Germany, cat. C-22011) and the hMSC were cultured in mesenchymal stem cell growth medium 2 (PromoCell, cat. C-28009). For all experiments, HUVEC and hMSC were used at passages </=5, while the malignant cell lines were used at passages </=15. […]
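For viability, T/C in this document: viability read after seven days of compound exposure; 100% = DMSO vehicle-treated spheroids so lower means less viable.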

SMILES	viability, T/C (compound alone 3.16 µM)	viability, T/C (compound alone 1 µM)	viability, T/C (compound alone 0.316 µM)	viability, T/C (compound alone 10 µM)	other results
CC(C)NCC(C(=O)N1CCN(c2ncnc3c2C(C)CC3O)CC1)c1ccc(Cl)cc1 (stereo not drawn)	23.5, 23, 31, 3.34, 27%				
CNCc1ccccc1-c1csc(C(C)Nc2nc(C)nc3cc(OC)c(OC)cc23)c1 (stereo not drawn)	105, 103, 97.8, 22.6, 96.6, 54.8, 26.4, 19, 32.5, 24.7, 51.6, 75.8, 87.2, 78.8, 84.3, 70.3, 93.1%	99.2, 97.4, 104, 96.6, 107 (2×), 95.2, 113, 106 (2×), 115, 103, 86.8, 90.8, 90.1, 84.2, 96.8%			
CC1COCCN1c1cc(-c2ccnn2C)c2ccnc(-c3ccn[nH]3)c2n1 (stereo not drawn)					IC50: 21.3 nM, 20.6 nM, 23.1 nM, < 10 nM, 21.5 nM; viability, T/C (compound alone 0.01 µM): 89.8, 88.6, 96.9, 11.1, 89.1%
COc1cc2nc(C)nc(NC(C)c3cc(N)cc(C(F)(F)F)c3)c2cc1OC1CCOC1 (stereo not drawn)	104 (2×), 89.5, 103, 87.5, 105, 95.8, 112, 117, 95.1, 106, 82.3, 90.3, 100, 95.6, 79.5, 84.8%		108, 102, 98, 96.6, 94.3, 98.6, 109, 96.9, 107, 97.9, 95, 98.5, 97.4, 65.8, 93.4, 97.2, 96.1%	107, 104, 93.8, 67.7, 63.6, 50.2, 84.2, 94.1, 67.1, 82.8, 73, 97.1, 102, 101, 110, 95.3, 93.5%	viability, T/C (compound alone 0.1 µM): 106, 101, 103 (2×), 93, 90.3, 85.8, 102, 86.5, 108, 85, 107, 98.4, 21.5, 9.66, 86.7, 97.3%; IC50 (run of 07/26/2021): > 10 µM and < 100 nM
CCN1CCN(Cc2ccc(Nc3ncc(F)c(-c4cc(F)c5nc(C)n(C(C)C)c5c4)n3)nc2)CC1			146, 135, 174, 132%		
C=CC(=O)N1CCN(c2nc(OCC3CCCN3C)nc3c2CCN(c2cccc4cccc(C)c24)C3)CC1CC#N (stereo not drawn)	93.5, 0.29, 0.37, 0.35, 0.19, 0.18, 0.25, 0.2, 0.21, 2.96, 6.07, 6.56, 1.81, 2.15%	87.7, 103, 102, 90.6, 90.8, 90.3, 97.7, 108, 114, 107, 110, 99.8, 89.5, 91, 82.9, 98.7%	101 (3×), 104 (3×), 96.2, 81.2, 98.1, 95.4, 102 (2×), 98.5, 106, 96.9, 112%		viability, T/C (compound alone 0.1 µM): 83.9, 102, 107, 97.8, 97.3, 98.2, 111, 94.5, 104 (2×), 106, 98.4, 100, 101, 103, 105%; IC50 (run of 07/12/2021): > 3.16 µM, 1.79 µM, 1.8 µM, 1.67 µM, 1.68 µM
Cn1nccc1Nc1nccc(-c2cc3c(s2)C(C)(C)N(CCN2CCOCC2)C3=O)n1			55.9, 58.1, 75.2, 57, 50.1%		
CC(=O)Nc1cccc(-n2c(=O)n(C3CC3)c(=O)c3c(Nc4ccc(I)cc4F)n(C)c(=O)c(C)c32)c1					viability, T/C (compound alone 0.000316 µM): 101, 111, 85.3, 105, 78.4%
O=C(c1cc(Cc2n[nH]c(=O)c3ccccc23)ccc1F)N1CCN(C(=O)C2CC2)CC1	31.5, 38.9, 85.9, 103, 83%	79.3, 75.4, 107, 95.9, 108%			IC50: 2.02, 2.16, 7.82, 8.44, 8.12 µM
COc1cc(OC)cc(N(CCNC(C)C)c2ccc3ncc(-c4cnn(C)c4)nc3c2)c1	90.3, 89.7, 104, 1.02, 95.3%	99.4, 101, 95.2, 0.64, 98.4%	106 (2×), 104, 39.5, 92.1%	23, 23.6, 25.6, 0.04, 19.1%	IC50: 6.23 µM, 6.32 µM, 6.93 µM, 262 nM, 6.27 µM
CCNC(=O)CC1N=C(c2ccc(Cl)cc2)c2cc(OC)ccc2-n2c(C)nnc21 (stereo not drawn)	140, 145, 136, 84.2, 121%	168, 171, 167, 107, 153%	104, 130, 136, 120, 132%	113, 130, 111, 18.9, 95.2%	
COC(=O)c1ccc2c(C(=Nc3ccc(N(C)C(=O)CN4CCN(C)CC4)cc3)c3ccccc3)c(O)[nH]c2c1	45.5, 25, 27.5, 72.5, 53%				
COc1cc2nccc(Oc3ccc(NC(=O)C4(C(=O)Nc5ccc(F)cc5)CC4)cc3)c2cc1OC		106, 96, 116, 18.2, 105%		13.5, 14.2, 14.5, 96.8, 17.9%	
CN(C)C/C=C/C(=O)Nc1cc2c(Nc3ccc(F)c(Cl)c3)ncnc2cc1O[C@H]1CCOC1					viability, T/C (compound alone 0.001 µM): 116, 96.7, 115, 97.4, 86.5%
CC1OCC2(CCN(c3cnc(Sc4ccnc(N)c4Cl)c(N)n3)CC2)C1N (stereo not drawn)	47, 106, 95.2, 97.4, 86.8, 95.6, 84.2, 89.1, 102 (2×), 86.3, 83.5, 99.2, 111 (2×), 97.1, 97.7, 101, 87.8, 96.2%	89.5, 100 (2×), 101 (3×), 118, 98.4 (2×), 110, 97.6, 116, 109, 108, 98.8, 93.7, 104, 92.2, 96.7%	114, 98.2, 122, 104 (3×), 103 (4×), 106, 116 (2×), 115, 109, 107, 98.4, 100, 94.9%	87.1, 91.4, 71, 90, 60, 55.5, 37.9, 69.8, 85.6, 72.9, 83.3, 126, 116, 106 (2×), 123, 101, 127, 107, 99.8%	
